Measured values: PubChem BioAssay AID504832 (National Center for Advancing Translational Sciences (NCATS), 2011)
“And” between values parts separate entries of the source, which are not always exact repeats. Equal values may be shown once. Screen size: about 310,000 compounds; about 18,000 (5.8%) were called active. Inconclusive results, whose numbers are uncertain, are shown with a selection of clear calls. The call rests on the fitted dose curve; in most records, active means well fitted inhibition curve with a large enough effect; inconclusive means small, poorly fitted or top-dose-only effect, or another doubt; inactive means no such curve, though single readings can be large or run the other way. Potencies beside an inconclusive call are fits to weak or partial responses and may not hold up.

Experiment: Primary qHTS for delayed death inhibitors of the malarial parasite plastid, 48 hour incubation
Conditions: P. falciparum luciferase growth in erythrocytes; series mostly up to 28.7 µM; activity change, negative = inhibition: at the top concentration
How it was run: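 Cell-based growth assay: transgenic P. falciparum expressing firefly luciferase, cultured in red cells within RPMI 1640 containing 0.5% w/v Albumax, 24 mM bicarbonate and gentamycin. A drop in luciferase activity indicates inhibition.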
On the % scale 0 is the no-effect control and ±100 the full control effect; potency means the concentration at half of the fitted maximal effect; tags describe the fitted curve by direction and shape.

Compound | Potency | activity change, negative = inhibition
Cc1ccc(-n2nc3c(N4CCC(C(=O)NCc5cccc(F)c5)CC4)nnc(C)c3c2C)cc1 | inconclusive: 11.7 µM [inhibitor, single point] | 
COc1cc(C(=O)NCCc2cn3ccccc3n2)cc(OC)c1OC |  | inactive: 11.5%
N#Cc1ccc(CSc2nc(N)cc(=O)[nH]2)cc1 | inconclusive: 18.5 µM [inhibitor, partial curve, poor fit] | 
Cc1cccc[n+]1CC(=O)c1ccc(NC(=O)c2ccccc2)cc1 | active: 2.94 µM | 
Cc1cc(C)n(S(=O)(=O)c2ccc(Cl)cc2)n1 |  | inactive: 14%
Cc1ccc(-n2cc(CNC(C)Cc3cnccn3)c(-c3cccc(C)c3)n2)cc1 (stereo unspecified) | active: 3.29 µM | 
O=C(O)c1cn[nH]c1-n1cnnn1 |  | inactive: 4.45%
O=c1[nH]c(-c2ccccc2O)nc2c1CCCC2 | inconclusive: 1.47 µM [inhibitor, partial curve, poor fit] | 
CN(C)c1ccc(-c2nn3c(-c4ccccc4Cl)nnc3s2)cc1 | inconclusive: 11.7 µM [inhibitor, partial curve, poor fit] | 
CCOc1ccc(N2C(=O)C(CC(=O)Nc3ccccc3)N(Cc3ccccn3)C2=S)cc1 (stereo unspecified) | inconclusive: 11.7 µM [inhibitor, single point] | 
CCc1noc(C)c1C(=O)Nc1nc2c(F)cc(F)cc2s1 | inconclusive: 18.5 µM [inhibitor, single point] | 
COC(=O)c1cncc(O)c1 |  | inactive: 15.2%
COc1ccc(CC(=O)N(Cc2ccccc2)c2ccccc2)cc1S(=O)(=O)N1CCOCC1 | inconclusive: 13.1 µM [inhibitor, partial curve, poor fit] | 
Cc1cc(Cl)c(S(=O)(=O)Nc2cccc(O)c2)cc1OCC(N)=O |  | inactive: 1.6%
CCOc1ccc(C(=O)COC(=O)c2nn(CC)c(=O)c3ccccc23)cc1 | inconclusive: 10.4 µM [inhibitor, single point] | 
CCC(=O)N(CC)C1=C(O)c2ccccc2C(=O)C1=O |  | inactive: -7.42%
COc1c(C)cc(C(=O)C2CCCN(Cc3cccc(O)c3)C2)cc1C (stereo unspecified) | active: 11.7 µM | 
CCC1CCCCN1C(=O)COC(=O)CSc1ccc(C(N)=O)cc1[N+](=O)[O-] (stereo unspecified) | inconclusive: 18.5 µM [inhibitor, partial curve, poor fit] | 
COc1ccc(N2CC(NS(=O)(=O)c3cccs3)CC2=O)cc1OC (stereo unspecified) | inconclusive: 18.5 µM [inhibitor, partial curve, poor fit] | 
CCOc1ccc(-c2cn(-c3ccccc3OC)c(=S)[nH]2)cc1 | inconclusive: 9.28 µM [inhibitor, partial curve, poor fit] | 
COc1ccc(NC(=O)COC(=O)Cn2cnc3ccccc3c2=O)c(OC)c1 |  | inactive: -15.4%
CCOC(=O)C1CCCN(C(=O)CCc2nnc(-c3ccc(C(C)=O)s3)o2)C1 (stereo unspecified) |  | inactive: -31.3%
O=C(Cc1nnc(NC(=O)Nc2ccc(F)cc2)s1)NCc1ccccc1 |  | inactive: 0%

Compound | Potency | activity change, negative = inhibition
C/C(=N\NC(=O)c1cc(-c2ccc(Br)s2)[nH]n1)c1ccncc1 | inconclusive: 13.1 µM [inhibitor, single point] | 
CCN1CCc2c(sc(NC(=O)c3ccc(S(=O)(=O)N4CCCCCC4)cc3)c2C(=O)NC)C1 | inconclusive: 9.28 µM [inhibitor, single point] | 
CCc1noc(C)c1C(=O)N(CCOC)c1c(N)n(CC(C)C)c(=O)[nH]c1=O |  | inactive: 1.07%
COCCCNc1nc2nonc2nc1NCCSC | inconclusive: 10.4 µM [inhibitor, partial curve, poor fit] | 
CCC1CCCCN1CCCNC(=O)CCC(=O)N1CC(C)Oc2ccccc21 (stereo unspecified) |  | inactive: 4.93%
N/C(=N\OC(=O)c1cccc(Br)c1)c1ccc(Br)cc1 |  | inactive: 48%
COc1cc(-c2ccc3c(=O)c4ccccc4n(C)c3c2)cc(OC)c1OC | inconclusive: 1.47 µM [inhibitor, full curve] | 
COc1cccc(N2CC(NS(=O)(=O)c3ccc4ccccc4c3)CC2=O)c1 (stereo unspecified) | inconclusive: 18.5 µM [inhibitor, single point] | 
c1ccc(CN2CCN(C(c3ccccc3)c3nnnn3Cc3ccccc3)CC2)cc1 (stereo unspecified) | inconclusive: 14.7 µM [inhibitor, single point] | 
C/C(=N\NC(=O)c1nn(C)cc1Cl)c1ccncc1 |  | inactive: 19.1%
Cc1nnsc1NC(=O)OCc1ccc(C(F)(F)F)cc1 |  | inactive: 36.9%
O=C(Cc1ccccc1)NNS(=O)(=O)c1ccccc1[N+](=O)[O-] |  | inactive: 16.4%
CN(CC(=O)Nc1cccc(F)c1)C(=O)c1ccc(COc2ccccc2)cc1 | inconclusive: 10.4 µM [inhibitor, single point] | 
CCOC(=O)COc1cccc(C2NC(=O)c3ccccc3O2)c1 (stereo unspecified) |  | inactive: -1.3%
COc1ccc(-c2nnn(CC(=O)N(CC(=O)NCCC(C)C)Cc3cccs3)n2)cc1OC | inconclusive: 11.7 µM [inhibitor, partial curve, poor fit] | 
CSc1ccccc1C(=O)C1CCCN(Cc2c(C)n(C)n(-c3ccccc3)c2=O)C1 (stereo unspecified) | inconclusive: 16.5 µM [inhibitor, partial curve, poor fit] | 
Cc1cccc(C(=O)NC(C(=O)Nc2ccccc2N2CCOCC2)C(C)C)c1 (stereo unspecified) | inconclusive: 11.7 µM [inhibitor, single point] | 
CCC(C(=O)NC1CCCC1)N(Cc1ccccc1Cl)C(=O)c1snc(C(N)=O)c1N (stereo unspecified) | inconclusive: 9.28 µM [inhibitor, partial curve] | 
CCCCC(=O)Nc1ccc(NC(=O)c2ccc([N+](=O)[O-])cc2)cc1OC |  | inactive: 27.4%
COC(=O)C1=C(C)N(Cc2ccccc2)C(=S)N[C@H]1c1ccccc1 | inconclusive: 18.5 µM [inhibitor, single point] and inconclusive: 1.85 µM [inhibitor, partial curve, poor fit] | 
O=C(/C=C/c1cccs1)c1cc(Br)ccc1OC(=O)N1CCOCC1 | inconclusive: 18.5 µM [inhibitor, single point] | 
O=C(CN1CCN(c2cccc(C(F)(F)F)c2)CC1)Nc1cccc(C(F)(F)F)c1 |  | inactive: 9.72%
COc1cccc(-c2c(C(=O)N/N=C/c3ccoc3)nnn2-c2nonc2N)c1 | inconclusive: 18.5 µM [inhibitor, single point] | 
